In all, about 33,000 sequences were measured (“E-score (-0.5 to 0.5)”: median about -0.043, highest 2% from about 0.37 on). The list shows a part of the results.
What follows are sequences tested against T1, Upc2 (UniProt Q12151) (assay: PBM E-score (8-mer binding enrichment) (E-score (-0.5 to 0.5)); higher = stronger / more preferred TF binding; most listed sequences are background and not binding sites). Details: protein concentration: 200 nM; construct: GST-full length.
T1 sequence: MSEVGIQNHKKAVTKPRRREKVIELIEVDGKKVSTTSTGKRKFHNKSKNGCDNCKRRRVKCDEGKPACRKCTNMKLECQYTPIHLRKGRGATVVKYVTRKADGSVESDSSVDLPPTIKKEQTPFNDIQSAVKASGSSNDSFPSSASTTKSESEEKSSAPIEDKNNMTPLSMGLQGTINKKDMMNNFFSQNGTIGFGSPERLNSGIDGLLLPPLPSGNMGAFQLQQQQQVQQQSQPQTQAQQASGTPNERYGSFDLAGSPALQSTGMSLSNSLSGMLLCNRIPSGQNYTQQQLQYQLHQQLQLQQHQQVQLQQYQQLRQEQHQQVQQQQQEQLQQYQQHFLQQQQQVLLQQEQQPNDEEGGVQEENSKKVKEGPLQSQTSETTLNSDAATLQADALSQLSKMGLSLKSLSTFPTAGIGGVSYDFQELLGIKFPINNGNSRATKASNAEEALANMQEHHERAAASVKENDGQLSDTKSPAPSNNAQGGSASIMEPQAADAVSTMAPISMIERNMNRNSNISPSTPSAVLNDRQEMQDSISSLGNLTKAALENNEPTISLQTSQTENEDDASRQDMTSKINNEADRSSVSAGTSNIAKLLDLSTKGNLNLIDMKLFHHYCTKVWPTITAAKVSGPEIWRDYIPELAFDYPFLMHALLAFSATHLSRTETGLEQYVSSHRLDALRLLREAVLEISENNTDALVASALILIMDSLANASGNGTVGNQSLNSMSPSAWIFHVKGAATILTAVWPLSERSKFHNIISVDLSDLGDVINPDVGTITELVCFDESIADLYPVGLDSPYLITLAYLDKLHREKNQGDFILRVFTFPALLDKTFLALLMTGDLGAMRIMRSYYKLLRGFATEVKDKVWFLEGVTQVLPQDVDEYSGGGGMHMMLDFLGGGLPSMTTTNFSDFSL
Method in brief: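 Using PURExpress in vitro transcription/translation, GST-tagged yeast transcription factors were made in full-length or DNA-binding-domain form. These were applied at about 100-200 nM to double-stranded universal all-10-mer Agilent arrays, and bound protein was detected with fluorescent anti-GST. Scans were normalised with masliner before the Universal PBM Analysis Suite assigned E-scores to ungapped eight-base words pooled with their reverse complements.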

Sequence | PBM E-score
CTATGTTC | -0.00082
AATAGTAT | 0.0304
CAATGAAG | -0.0741
CCATCAAC | 0.0474
CACTTCGC | 0.0178
GCCTGTAC | 0.222
CCGGCTCG | 0.0536
CGACGAGA | 0.0503
CATGAAAA | -0.0249
GGGAACCC | -0.0648
AACTGTAG | -0.127
AAGTATCC | 0.128
CGGACACG | 0.227
AAATACAA | 0.208
CGGGGGTC | -0.15
CACAACCA | -0.063
TACATCAA | -0.138
AGATTTGG | -0.0954
CCGACTCG | 0.0772
AAGCGGCG | 0.131
GAGTGGGC | -0.0571
AATTCTGC | -0.0392
GCAGAGCC | -0.0234
CTATTGCC | -0.25
AACACTGA | 0.0163

Sequence | PBM E-score
AACGGAAG | 0.186
CCGTTCAA | 0.322
GTAATCCA | -0.113
AGAATCAA | 0.0541
CCGAAACC | 0.055
ACTCCATG | -0.168
CACGCTAG | -0.195
GGGCTAAC | -0.231
AACTCATC | -0.044
CGGCGTGC | -0.18
GTTGCCCA | 0.0762
AGCTTGTG | -0.256
GTGCTACA | -0.31
GGATCCCC | -0.202
CATCTGCA | -0.216
CTTGGCCC | -0.171
ATACTCCC | -0.196
AAGTAGTA | 0.0101
CGCGAATC | 0.108
ACCAAGAA | -0.0287
TTCGAAAA | 0.149
ATTTAGCA | -0.0363
TAGCAGAA | 0.012
AGGATGAG | -0.143
ACGTGGAA | 0.111

Sequence | PBM E-score
AGGGAGAC | -0.076
CCTCTGGC | -0.128
GAGGGAGC | -0.193
CCGGCGAG | 0.0189
AGGTTTAA | -0.0168
CGTCAGTA | -0.105
AAAACGAG | 0.316
ATCCCCTG | -0.0998
ACTGCTTG | -0.219
ACTACAGA | 0.155
TGATATAA | -0.14
ATTAGTTA | -0.0252
CAGCCGAC | -0.138
TCCTTAGA | -0.279
CACGTCCA | 0.0152
AGACCTGA | -0.134
ATCGCGCA | -0.11
GAACACAA | 0.162
GTCATCAC | -0.0856
GCCTCTCC | -0.292
AATATTAG | 0.21
ATGCTGAA | -0.151
AAGCCATC | -0.0205
ACAGTAGG | 0.0839
AGCGCACG | 0.139

Sequence | PBM E-score
ATTCAGTG | -0.126
AGACTATC | -0.0269
TAGGGAGA | -0.217
AGGCGTGC | -0.0583
AGTTCGAA | 0.0491
CTTCGGTA | 0.125
GCCTCTTA | 0.183
GTAACAAA | 0.0869
CACTGACC | -0.0556
CTCTCAAC | -0.0848
AGAGGATG | -0.191
AACACAGG | -0.2
ACCTCACG | -0.295
GGTATCGA | 0.0592
CTAATGCC | -0.00798
CGTGAACC | -0.0604
ACCGTATC | 0.345
CATATAAG | 0.17
CGATTACC | 0.128
AGGCTAAG | -0.179
AGACAAAT | -0.0378
CTTCGCTA | 0.169
TCAGAGAA | -0.213
ACTTCCAT | 0.044
GGGTCCTA | -0.201

Sequence | PBM E-score
CATTGACC | 0.0125
CGACAACA | 0.131
ATTTTCCA | 0.0183
GGTCGCAC | 0.138
CTTCATAA | -0.121
CCACTAGG | -0.397
AATACCGC | -0.131
TGCCCGAA | 0.0305
GAGAAGCC | -0.171
ACGCCTTA | 0.132
GTATCCGA | 0.287
CCACGGAA | 0.00559
GAAGTCGC | 0.053
GAGCTACC | -0.156
GCTGTGCC | -0.233
CCAATAAG | -0.2
CAGCCACG | -0.14
ACAAGGCA | -0.202
ACTACCTG | -0.089
GAGTGGCA | -0.0426
AGTCTCAA | -0.0862
GTACACAC | 0.288
AGAAATCC | 0.00939
AGGGATTA | 0.0294
AATCCGTC | -0.0144

Sequence | PBM E-score
CGAAGAAG | 0.085
GAACGGGA | 0.238
ACCCAAGC | -0.119
CCTGAGCA | -0.117
ACTACCAC | -0.154
CCTTGGAA | -0.148
GTGGCGGA | -0.285
AGGATACA | -0.167
AAACTCTT | -0.195
GACAAGGA | -0.122
CTAGTGCC | -0.219
ACCTGTCG | 0.158
CGTCGAAG | -0.0248
CGTCCATC | -0.0612
CGAAGATC | 0.246
AGTGGTAA | -0.0195
ATTGAGAA | 0.0824
ACCGTCGA | -0.191
GGCGTAAA | 0.279
TGGGCCCA | 0.0916
TAACCAAA | -0.00385
AAAAGGCT | -0.229
ACTAGGTA | -0.0859
CCGACATA | -0.0313
TGACTAAA | -0.133

Sequence | PBM E-score
CTAAATAC | 0.132
CTTGATGA | -0.0898
CTCAGGAC | -0.101
AACTACAT | -0.257
ACTTCTAT | 0.0241
CCTCCAGG | -0.243
CACAAACC | -0.0575
ATGCACGA | -0.0149
GCCAAAAA | -0.209
ATAAACAC | -0.033
CGCCGATC | -0.0454
TGGGACAA | -0.333
ACGAACAG | 0.314
ACATTCCT | -0.0475
CATCTCTA | 0.017
AAGAACCG | 0.012
GACCGCAA | 0.187
GCGGTTCA | -0.208
GCAACCTA | -0.195
CCCCCAAG | -0.242
AGCCGAAC | 0.0166
CCAGCACG | -0.0471
